The results in this text go back to the supplement of paper PMC11417369.

The other results are listed elsewhere or left out.

The assay concerns PfSIP2 AP2 domain 1 (GST-tagged). The assay is described as follows: gcPBM binding intensity (ln(normalized median fluorescence intensity)); higher = stronger DNA binding. Put shortly:
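GST-fused DNA-binding domains of P. falciparum, expressed in E. coli, were applied at about 25 μg on average for 1 h to an Agilent 4 × 180k array of primer-extended double-stranded 36-bp intergenic genomic probes and negative controls. Binding intensity is the highest Masliner-normalised natural-log median intensity across replicate spots of either probe orientation, measured with Alexa488 anti-GST antibody and a 488 nm scan.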
As for “TATTGTATTTAATAAACACACAATATTAAAAATATA [CACACA_site4725]”, the “gcPBM binding intensity (ln)” value was 6.91.
For “CATATATACACATACACACACACACGGACACGCACA [CACACA_site6910]” the value was 7.74; for “ATACACATATATGTGTGTACTCACCTTTTAATATGA [XGTACX_site4349]”, 7.16.
As for “TTTAATTTGTTATACACACACAAAAAAAGTTATAAA [CACACA_site7779]”, the “gcPBM binding intensity (ln)” value was 7.01.
Consider “TCTTTCTTATATTTATATAATTATATTTATTTTATA [GTGCAC_negctrl_site300]”, for which the “gcPBM binding intensity (ln)” value came out at 7.13.
“GGAATACAGGAAAAAAGTACAGAAAATGGAATATTA [XGTACX_site5053]”: the “gcPBM binding intensity (ln)” value came out at 7.03.
For “ATATAATGTTATAGAAGTACATGAAATACTTATTTA [XGTACX_site8850]” the value was 6.73; for “AACATTTATAAATATTGTACATATAGATTTATATAT [XGTACX_site2662]”, 7.06.
With “AAAATAAAATAACGTTGTACAACATCATTTCTATAT [XGTACX_site5080]” the figure was 6.84; with “AACAATATATTGAATAGTACATATATATAAACATAT [XGTACX_site2811]”, 7.04; with “ATTATACAAAATGGTAAGGAAAAGGAAATTTTTTTT [CACACA_negctrl_site1090]”, 6.66.
On to “CAATATTATATATATACACACATAATCTGTAAAAAC [CACACA_site1068]”, for which the “gcPBM binding intensity (ln)” value came out at 7.07.
For “CATATATATATATATACACACATATATATTTTCTTT [CACACA_site1457]” the value was 7.54; for “AAAAAAAAAAATATCACACACACATAAATATAAACA [CACACA_site7138]”, 6.97.
As for “AAAGTAGGCTTATATGCACACTTTGAAATATTATAA [CACACA_site5117]”, the “gcPBM binding intensity (ln)” value was 7.07.
Consider “ATAAAAATTGATTATACACACGCGCACCCACAACAA [CACACA_site3536]”, for which the “gcPBM binding intensity (ln)” value is 11.2.
Turning to “TATTTATAAATTTACACACACACATGGGAACATAAA [CACACA_site5111]”, the “gcPBM binding intensity (ln)” value was 7.25.
Turning to “ATGTCAAATTTTTGTGCACACATATATAGTTATTAT [CACACA_site2242]”, the “gcPBM binding intensity (ln)” value is 9.47.
For “TATATATATCAGCAATGTACACAATGCATATTATAT [XGTACX_site4836]” the value was 7.11.
With “TAAGGATAAATAAAATGAAATGAAATAAATAAATGA [XGTACX_negctrl_site539]” the figure was 6.82.
As for “TTATTTTATTTTAAAAAAAACAATATAAATTCAAAG [GTGCAC_negctrl_site57]”, the “gcPBM binding intensity (ln)” value was found to be 6.98.
For “TCTACAATTATAATTACACACTATAAAAAAGAAAGA [CACACA_site2984]”, the “gcPBM binding intensity (ln)” value was 7.08.
For “AAAAATAGGAACCAATATCCAACGTGACTTTATAAT [CACACA_negctrl_site1011]” the value was 6.76.
“ATTTTTTTTTTTTTTTTTTTTTTTTTTTGATTTGTG [CACACA_negctrl_site1391]”: the “gcPBM binding intensity (ln)” value amounted to 6.86.
Consider “AAAATAATTATGAATTGTACAGGTTTTTTTTTTTTT [XGTACX_site220]”, for which the “gcPBM binding intensity (ln)” value amounted to 6.96.
With “AAAAAATTTTTAAGCACACACATAGATAATATATAT [CACACA_site1555]” the figure was 7.35; with “GGAAAAAAAAAAAAAAAACACACGGTACATTCAAAC [CACACA_site2715]”, 6.79; with “ATGGTTTAGTTATATACACACTCGAAAATAACGACA [CACACA_site7520]”, 7.09.
For “TATAAAAATATATTTACACACTATATATATCGAAAG [CACACA_site1700]”, the “gcPBM binding intensity (ln)” value is 7.04.
Regarding “ATATATTTTCAAAAAAGTAAATCAAAATAAATATAT [TGCATGCA_negctrl_site319]”, the “gcPBM binding intensity (ln)” value was determined as 7.04.
On to “TCCAAATACAACTACACACAAACAAAAATTATATAT [CACACA_site881]”, for which the “gcPBM binding intensity (ln)” value was 7.03.
With “AAAATTTTTCTTAAAGCATGCACAATTAAGAAGACG [TGCATGCA_site883]”, the “gcPBM binding intensity (ln)” value amounted to 7.81.
For the sequence “TTTTTTTTAAGAGATAGTACATAAATATTATAATAT [XGTACX_site4685]”, the “gcPBM binding intensity (ln)” value was found to be 7.07.
Turning to “AAATAAAATTTTATGTGTACGCAAAAAGTTGTAAGC [XGTACX_site8911]”, the “gcPBM binding intensity (ln)” value was found to be 7.47.
On to “TTAAAATTAATTCACCAGTATTAAAATAAAAACGAA [CACACA_negctrl_site1428]”, for which the “gcPBM binding intensity (ln)” value stood at 7.56.
On to “AATAAATAAATATATACACACATATATATATAATAT [CACACA_site921]”, for which the “gcPBM binding intensity (ln)” value is 7.08.
With “TACAATCTAAAATACACACACACAAACATATATTTA [CACACA_site3702]” the figure was 7.02.
For the sequence “ATATTAATATATATGTTTTATTACCATTTTATGTAT [CACACA_negctrl_site1761]”, the “gcPBM binding intensity (ln)” value came to 7.05.
On to “AAGATATATATAGAAAGTACTTATATTTGTATAATT [XGTACX_site8855]”, for which the “gcPBM binding intensity (ln)” value was 6.91.
For “ATTTAATAACGGCATGCATGTCCTTATATAAATTTA [TGCATGCA_site1012]” the value was 6.79; for “TGAATTGTAATTTATAATATACGTGGTTTCTACTTA [CACACA_negctrl_site559]”, 6.66.
For “CCTTACCAAATAATATGTACACATTTAATGTTATAT [XGTACX_site7840]” the value was 7.22; for “TATTATATATTATATAGTACATATTTATGTAAGAGG [XGTACX_site3099]”, 7.43.
For “TATCAGTATACAACAACACACATAATGTTTGTCATC [CACACA_site2980]” the value was 6.92.
Regarding “CACTTAAAAAAAATACGTACACATATATATATATAT [XGTACX_site2054]”, the “gcPBM binding intensity (ln)” value worked out at 9.47.
For “CAAAAATAAATATAAACACACAATAAATAAATAAAT [CACACA_site891]” the value was 6.69; for “ATGGTATCTTTTAGAAGTACATCATGATAATAATTT [XGTACX_site5544]”, 7.18.
With “GATCATAATATTTAAAAGAATATATATAAAAAGGAA [XGTACX_negctrl_site310]” the figure was 7.03; with “GTATTAATTTATATATGTACATATGTGATATATATA [XGTACX_site5825]”, 7.4; with “CAAAATTAATAAGTCACACACACATATATAATATAT [CACACA_site798]”, 7.07.
For “TATAAAAATATATGCACACAAATAAAAAATTATATA [CACACA_site3629]” the value was 8.26.
As to “TATATTTATACAATATGTACATATTATATATATATA [XGTACX_site3098]”, the “gcPBM binding intensity (ln)” value was determined as 8.47.
As for “TCATAGCACAAAAAATGTACTTATTATTTAATATTT [XGTACX_site5687]”, the “gcPBM binding intensity (ln)” value amounted to 6.82.
With “ATGTGATAATTTAATAGTACATAACAGTTTAACAAT [XGTACX_site5854]” the figure was 7.16; with “TTTTTTATTAAATATATATAATAATAATAATTTGTA [CACACA_negctrl_site1719]”, 6.88.
With “TTATAATAAATATTTATTATATATAATATATATTAC [CACACA_negctrl_site1802]” the figure was 6.89.
As to “TATATTATATATTTATGTACGTATTTGTAAAAAGAT [XGTACX_site3444]”, the “gcPBM binding intensity (ln)” value worked out at 7.49.
Turning to “TTTGTTTTATGTGGTTGTACACAAATACAATTTAAA [XGTACX_site5156]”, the “gcPBM binding intensity (ln)” value worked out at 7.32.
Consider ATAATAATTATATCAGTGCGCATATATATTTATTTA, for which the “gcPBM binding intensity (ln)” value came to 9.87.
For “GTTTCCTTAATATTCACACACATATCTATAATATAT [CACACA_site6959]” the value was 7.56; for “TTTATATGCAATTAAGTGCATAAGAAAAAAAAAGGA [GTGCAC_site9966]”, 8.46; for “CAAACAAATTGTGAAACACACATATTTATATTTATA [CACACA_site7030]”, 6.72.
Take “TTATAAAATAAACTTACACACATGAAATATTATAGT [CACACA_site7000]”: the “gcPBM binding intensity (ln)” value stood at 6.84.
As for “AAAAACAATCATTTTAAATAAAAATCTCTAATTTAA [GTGCAC_negctrl_site138]”, the “gcPBM binding intensity (ln)” value was 6.52.
For “ATTTGTTCATTTGGTTGTACATAATTTATTTTTATA [XGTACX_site785]” the value was 7.26; for “TTTTCATTTTTTTTTTTTTTTTTTTTTCTTTTTTTT [CACACA_negctrl_site1312]”, 6.85.
Consider “ATTTCTTTAATATACACACACCAAAACAAAAAAAAA [CACACA_site6416]”, for which the “gcPBM binding intensity (ln)” value was 7.4.
For “GTTGTGTAATTCGTAACACACATAAAATATATATAA [CACACA_site6059]” the value was 6.97; for “ATATAGTTCGATATAGTTAGTATGAATTGAAAAATA [CACACA_negctrl_site1826]”, 6.92.
For “TTTTTAAAATATTTAACACACAATTTTAATGCATAA [CACACA_site6036]” the value was 6.75; for “AAAAAAATAAAACACACACACAAAAAAATAAAAATA [CACACA_site465]”, 6.84; for “GAAATTAAATGACATACACACTATATTATATATTTT [CACACA_site5693]”, 6.82.
“TAGATAGATTAAAATACATGCATATTATTAAAAAAT [TGCATGCA_site739]”: the “gcPBM binding intensity (ln)” value came out at 6.88.
With “CACCCATACACATACAAACACACATTCTATATATAT [CACACA_site1600]”, the “gcPBM binding intensity (ln)” value was 7.92.
For “AGCATAAAAATGATATGTACATATATATATATATAT [XGTACX_site2836]” the value was 9.18.
“CATACATACATACATACACACATACATATGTATATA [CACACA_site7216]”: the “gcPBM binding intensity (ln)” value turned out to be 8.04.
For “ATTTAATGTATTTTGCGTACGAATTATTTTATTTCA [XGTACX_site7331]” the value was 7.19; for “AATCATAAACATTATGCACACAAAAATAAAAAAAAA [CACACA_site8289]”, 7.36; for “TATCTTCAATGTGAAAGTACTTAAATTGTTATAAAA [XGTACX_site2586]”, 6.94.
For “TGGAATAAAAAAAGGAGTACAATTAATTATTCTTAA [XGTACX_site8299]” the value was 6.63; for TATATATATATATATGTGCACATATTTATATGTTTT, 9.47; for “ACTTATAATATTTAGTGTACATATTGTGACTAATAC [XGTACX_site1508]”, 7.35.
For “AAAAAAAAAACAAATGCATGTAATATAAGAATTACA [TGCATGCA_site908]” the value was 6.77.
On to “TATTTATAAATTTACACACACACATGTGAACATAAA [CACACA_site1909]”, for which the “gcPBM binding intensity (ln)” value was 7.12.
For the sequence “ATTTTAAAAAATTAATGTACTTAATTAATACTGAAA [XGTACX_site7702]”, the “gcPBM binding intensity (ln)” value is 6.78.
As to “TATCAAAAAAAAAGTAGTACGATAATAGTTTCCCAA [XGTACX_site1812]”, the “gcPBM binding intensity (ln)” value amounted to 7.01.
As to “TTTATGTATTTAATATGTACATATAGTTGTTAATAA [XGTACX_site1938]”, the “gcPBM binding intensity (ln)” value came to 7.02.
In the case of “GCTATATATTAATGTTGTACTTTATGTTCATATTGT [XGTACX_site3619]”, the “gcPBM binding intensity (ln)” value worked out at 7.22.
